Data taken from the antibiotic and cytotoxicity screens of Wong et al. (2023).
Some of the results follow.

Experiments:
[1] = tested on: HSkMC (human skeletal muscle cells); experiment: cytotoxicity call (relative viability < 0.9); conditions: 10 µM
[2] = tested on: HepG2; experiment: cytotoxicity call (relative viability < 0.9); conditions: 10 µM
[3] = tested on: S. aureus RN4220; experiment: growth inhibition call (relative growth <= 0.2); conditions: 50 µM

Cc1ccc(-c2ncns2)cc1
inactive: cytotoxicity call [1] | cytotoxicity call [2] | growth inhibition call [3]

Cc1cc(C(=O)Nc2cccc3c2O[C@@H](CN(C)S(=O)(=O)c2ccc(Cl)cc2)[C@H](C)CN([C@H](C)CO)C3=O)n(C)n1
inactive: cytotoxicity call [1] | cytotoxicity call [2] | growth inhibition call [3]

C[C@H](CO)N1C[C@H](C)[C@H](CN(C)S(=O)(=O)c2cn(C)cn2)Oc2c(NC(=O)Nc3ccccc3)cccc2C1=O
inactive: cytotoxicity call [1] | cytotoxicity call [2] | growth inhibition call [3]

C[C@H]1CN([C@@H](C)CO)C(=O)c2cccc(NC(=O)c3cnccn3)c2O[C@H]1CN(C)S(=O)(=O)c1ccc(F)cc1
inactive: cytotoxicity call [1] | cytotoxicity call [2] | growth inhibition call [3]

COc1ccc(S(=O)(=O)Nc2ccc3c(c2)C(=O)N([C@@H](C)CO)C[C@H](C)[C@H](CN(C)S(=O)(=O)c2ccc(Cl)cc2)OCCCC[C@H](C)O3)cc1
inactive: cytotoxicity call [1] | cytotoxicity call [2] | growth inhibition call [3]

CC(C)N1C[C@H](C)[C@@H](CN(C)Cc2ccc(Oc3ccccc3)cc2)Oc2c(cccc2-c2cn(-c3ccncc3)nn2)C1=O
inactive: cytotoxicity call [1] | cytotoxicity call [2] | growth inhibition call [3]

C[C@@H]1CN([C@@H](C)CO)C(=O)c2cc(NS(=O)(=O)c3cccs3)ccc2O[C@H]1CN(C)Cc1ccc(Cl)c(Cl)c1
inactive: cytotoxicity call [1] | cytotoxicity call [2] | growth inhibition call [3]

O=C(C[C@H]1C[C@@H]2c3cc(NC(=O)c4cccnc4)ccc3O[C@@H]2[C@@H](CO)O1)NCc1cc(F)ccc1F
inactive: cytotoxicity call [1] | cytotoxicity call [2] | growth inhibition call [3]

CC1=CC[C@H](C(C)(C)O)CC1
inactive: cytotoxicity call [1] | cytotoxicity call [2] | growth inhibition call [3]

C[C@@H]1CCCCO[C@H](CN(C)C(=O)CCC(F)(F)F)[C@@H](C)CN([C@H](C)CO)C(=O)c2cc(NC(=O)CCC(F)(F)F)ccc2O1
inactive: cytotoxicity call [1] | cytotoxicity call [2] | growth inhibition call [3]

O=C(C[C@H]1CC[C@@H](NC(=O)c2cccnc2)[C@@H](CO)O1)NCCN1CCCCC1
inactive: cytotoxicity call [1] | cytotoxicity call [2] | growth inhibition call [3]

CCC(=O)Nc1ccc2c(c1)OC[C@H](C)N(C(=O)CN1CCOCC1)C[C@@H](C)[C@@H](OC)CN(C)C2=O
inactive: cytotoxicity call [1] | cytotoxicity call [2] | growth inhibition call [3]

COCC(=O)N(C)C[C@@H]1Oc2cc(-c3ccc(OC)cc3)ccc2S(=O)(=O)N([C@H](C)CO)C[C@@H]1C
inactive: cytotoxicity call [1] | cytotoxicity call [2] | growth inhibition call [3]

C[C@H]1CN([C@@H](C)CO)C(=O)Cc2cc(NS(=O)(=O)c3cccs3)ccc2O[C@H]1CN(C)S(=O)(=O)c1ccc(F)cc1
inactive: cytotoxicity call [1] | cytotoxicity call [2] | growth inhibition call [3]

C[C@@H]1CCCCO[C@H](CN(C)C(=O)Nc2ccc3c(c2)OCO3)[C@H](C)CN([C@H](C)CO)C(=O)c2cc(NC(=O)Nc3ccc(C(F)(F)F)cc3)ccc2O1
inactive: cytotoxicity call [1] | cytotoxicity call [2] | growth inhibition call [3]

C[C@H]1CCCCO[C@H](CN(C)Cc2ccncc2)[C@@H](C)CN([C@@H](C)CO)C(=O)c2cc(NC(=O)Cc3ccccc3)ccc2O1
inactive: cytotoxicity call [1] | cytotoxicity call [2] | growth inhibition call [3]

C[C@H](CO)N1C[C@H](C)[C@@H](CN(C)C(=O)Nc2ccc(C(F)(F)F)cc2)OCCCC[C@H](C)Oc2ccc(NC(=O)c3ccncc3)cc2C1=O
inactive: cytotoxicity call [1] | cytotoxicity call [2] | growth inhibition call [3]

C[C@@H]1CN([C@@H](C)CO)C(=O)c2cc(-c3cccc(C(=O)N(C)C)c3)cnc2O[C@@H]1CN(C)C(=O)Cc1ccccn1
inactive: cytotoxicity call [1] | cytotoxicity call [2] | growth inhibition call [3]

CN(C)CCCC[C@@H]1NC(=O)[C@H]2C[C@@H](C(=O)NCCCCCCNC(=O)CS)[C@@H](c3ccc(O)cc3)N2C1=O
inactive: cytotoxicity call [1] | cytotoxicity call [2] | growth inhibition call [3]

COCC#Cc1cnc2c(c1)C(=O)N([C@@H](C)CO)C[C@H](C)[C@H](CN(C)S(=O)(=O)c1cn(C)cn1)O2
inactive: cytotoxicity call [1] | cytotoxicity call [2] | growth inhibition call [3]
